According to publication PMC3493068:
These are yes or no findings as the source states them, for the method shown. In cells and extracts the contact can be indirect. Some entries that bind do so weakly or less than the wild type. For part of these data: Tags and fused reporters may be left off the sequences shown.

Assays:
[1] = target: T1, FLAG-tagged full-length human MG53 (human) (UniProt Q6ZMU5); test: co-IP; COS-7 cells co-transfected with FLAG-MG53 and c-myc-dysferlin constructs, lysed 48 h later in 20 mM Tris-HCl pH 7.5, 150 mM NaCl, 1% NP-40 without CaCl2 and EGTA; IP with anti-FLAG (M2) or anti-c-myc (9E10), immunoblot
T1 sequence: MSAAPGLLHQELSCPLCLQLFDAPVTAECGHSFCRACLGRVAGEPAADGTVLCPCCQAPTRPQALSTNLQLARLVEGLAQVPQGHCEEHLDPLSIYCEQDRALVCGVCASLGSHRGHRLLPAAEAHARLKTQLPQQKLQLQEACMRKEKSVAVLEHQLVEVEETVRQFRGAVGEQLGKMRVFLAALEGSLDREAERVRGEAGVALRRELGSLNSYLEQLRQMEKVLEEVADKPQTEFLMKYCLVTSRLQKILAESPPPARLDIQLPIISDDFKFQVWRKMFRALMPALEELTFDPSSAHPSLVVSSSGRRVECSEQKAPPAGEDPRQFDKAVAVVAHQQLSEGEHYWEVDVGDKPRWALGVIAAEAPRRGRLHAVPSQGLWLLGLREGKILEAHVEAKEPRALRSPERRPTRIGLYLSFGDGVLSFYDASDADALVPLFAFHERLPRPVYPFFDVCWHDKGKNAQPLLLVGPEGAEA

[2] = target: T1, FLAG-tagged full-length human MG53 (human); test: co-IP; extracts from co-transfected COS-7 cells, in the absence of EGTA or Ca2+; missense mutants of dysferlin; data not shown
[3] = target: T2, Mitsugumin 53 (MG53), endogenous, mouse skeletal muscle (mouse (endogenous in skeletal muscle)) (UniProt Q1XH17); test: co-IP; mouse gastrocnemius muscle lysate, 20 mM Tris-HCl pH 7.5, 150 mM NaCl, 1% NP-40, without EGTA or CaCl2; IP with polyclonal anti-MG53 or anti-dysferlin, immunoblot
T2 sequence: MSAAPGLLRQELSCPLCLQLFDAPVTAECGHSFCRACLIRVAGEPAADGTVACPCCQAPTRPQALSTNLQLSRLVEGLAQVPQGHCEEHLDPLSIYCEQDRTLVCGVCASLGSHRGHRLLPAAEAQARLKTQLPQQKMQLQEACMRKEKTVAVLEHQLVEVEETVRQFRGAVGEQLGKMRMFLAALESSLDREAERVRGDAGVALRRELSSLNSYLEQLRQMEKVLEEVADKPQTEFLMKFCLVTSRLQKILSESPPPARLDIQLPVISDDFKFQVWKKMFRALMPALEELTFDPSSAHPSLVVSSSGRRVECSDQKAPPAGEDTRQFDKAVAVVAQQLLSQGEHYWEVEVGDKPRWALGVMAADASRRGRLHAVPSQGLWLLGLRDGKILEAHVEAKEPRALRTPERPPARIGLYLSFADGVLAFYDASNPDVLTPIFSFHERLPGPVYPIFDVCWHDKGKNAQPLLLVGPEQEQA

[4] = target: dysferlin, endogenous, mouse skeletal muscle (mouse (endogenous in skeletal muscle)) (UniProt Q9ESD7); test: co-IP; mouse gastrocnemius muscle lysate, same buffer supplemented with 2 mM EGTA
[5] = target: dysferlin, endogenous, mouse skeletal muscle (mouse (endogenous in skeletal muscle)) (UniProt Q9ESD7); test: co-IP; mouse gastrocnemius muscle lysate, same buffer supplemented with 1 mM CaCl2
[6] = target: dysferlin, endogenous, mouse skeletal muscle (mouse (endogenous in skeletal muscle)) (UniProt Q9ESD7); test: co-IP; mouse gastrocnemius muscle lysate, 20 mM Tris-HCl pH 7.5, 150 mM NaCl, 1% NP-40, without EGTA or CaCl2; IP with polyclonal anti-MG53 or anti-dysferlin, immunoblot
[7] = target: dysferlin, endogenous, C2C12 myotubes (mouse (endogenous in C2C12)) (UniProt Q9ESD7); test: co-IP; C2C12 myotubes, without EGTA or CaCl2; data not shown
[8] = target: T1, FLAG-tagged full-length human MG53 (human); test: co-IP; COS-7 cells co-transfected with FLAG-MG53 and c-myc-dysferlin constructs, lysed 48 h later in 20 mM Tris-HCl pH 7.5, 150 mM NaCl, 1% NP-40 without CaCl2 and EGTA; IP with anti-FLAG (M2) or anti-c-myc (9E10), immunoblot; remark: listed apart in the source

c-myc-tagged full-length human dysferlin (from UniProt O75923 1-2080)
binding [1]: binds

full-length dysferlin with the W999C missense mutation (from UniProt O75923 1-2080)
binding [2]: binds

c-myc-tagged human dysferlin deletion mutant aa 130-2080 (without the C2A domain) (from UniProt O75923 130-2080) (domain or fragment)
binding [1]: no binding

dysferlin, endogenous, mouse skeletal muscle (from UniProt Q9ESD7 1-2090)
binding [3]: binds

B1: Mitsugumin 53 (MG53), endogenous, mouse skeletal muscle (protein, UniProt Q1XH17 1-477)
chain: MSAAPGLLRQELSCPLCLQLFDAPVTAECGHSFCRACLIRVAGEPAADGTVACPCCQAPTRPQALSTNLQLSRLVEGLAQVPQGHCEEHLDPLSIYCEQDRTLVCGVCASLGSHRGHRLLPAAEAQARLKTQLPQQKMQLQEACMRKEKTVAVLEHQLVEVEETVRQFRGAVGEQLGKMRMFLAALESSLDREAERVRGDAGVALRRELSSLNSYLEQLRQMEKVLEEVADKPQTEFLMKFCLVTSRLQKILSESPPPARLDIQLPVISDDFKFQVWKKMFRALMPALEELTFDPSSAHPSLVVSSSGRRVECSDQKAPPAGEDTRQFDKAVAVVAQQLLSQGEHYWEVEVGDKPRWALGVMAADASRRGRLHAVPSQGLWLLGLRDGKILEAHVEAKEPRALRTPERPPARIGLYLSFADGVLAFYDASNPDVLTPIFSFHERLPGPVYPIFDVCWHDKGKNAQPLLLVGPEQEQA
binding [4]: no binding (condition: with 2 mM EGTA)
binding [5]: no binding (condition: with 1 mM CaCl2)
binding [6]: binds

B2: MG53, endogenous, C2C12 myotubes (protein, UniProt Q1XH17 1-477)
chain: MSAAPGLLRQELSCPLCLQLFDAPVTAECGHSFCRACLIRVAGEPAADGTVACPCCQAPTRPQALSTNLQLSRLVEGLAQVPQGHCEEHLDPLSIYCEQDRTLVCGVCASLGSHRGHRLLPAAEAQARLKTQLPQQKMQLQEACMRKEKTVAVLEHQLVEVEETVRQFRGAVGEQLGKMRMFLAALESSLDREAERVRGDAGVALRRELSSLNSYLEQLRQMEKVLEEVADKPQTEFLMKFCLVTSRLQKILSESPPPARLDIQLPVISDDFKFQVWKKMFRALMPALEELTFDPSSAHPSLVVSSSGRRVECSDQKAPPAGEDTRQFDKAVAVVAQQLLSQGEHYWEVEVGDKPRWALGVMAADASRRGRLHAVPSQGLWLLGLRDGKILEAHVEAKEPRALRTPERPPARIGLYLSFADGVLAFYDASNPDVLTPIFSFHERLPGPVYPIFDVCWHDKGKNAQPLLLVGPEQEQA
binding [7]: binds

B3: c-myc-tagged human dysferlin deletion mutant aa 1081-2080 (without the C2A domain) (domain or fragment, UniProt O75923 1081-2080)
chain: LEYRKTDAFRRRRWRRRMEPLEKTGPAAVFALEGALGGVMDDKSEDSMSVSTLSFGVNRPTISCIFDYGNRYHLRCYMYQARDLAAMDKDSFSDPYAIVSFLHQSQKTVVVKNTLNPTWDQTLIFYEIEIFGEPATVAEQPPSIVVELYDHDTYGADEFMGRCICQPSLERMPRLAWFPLTRGSQPSGELLASFELIQREKPAIHHIPGFEVQETSRILDESEDTDLPYPPPQREANIYMVPQNIKPALQRTAIEILAWGLRNMKSYQLANISSPSLVVECGGQTVQSCVIRNLRKNPNFDICTLFMEVMLPREELYCPPITVKVIDNRQFGRRPVVGQCTIRSLESFLCDPYSAESPSPQGGPDDVSLLSPGEDVLIDIDDKEPLIPIQEEEFIDWWSKFFASIGEREKCGSYLEKDFDTLKVYDTQLENVEAFEGLSDFCNTFKLYRGKTQEETEDPSVIGEFKGLFKIYPLPEDPAIPMPPRQFHQLAAQGPQECLVRIYIVRAFGLQPKDPNGKCDPYIKISIGKKSVSDQDNYIPCTLEPVFGKMFELTCTLPLEKDLKITLYDYDLLSKDEKIGETVVDLENRLLSKFGARCGLPQTYCVSGPNQWRDQLRPSQLLHLFCQQHRVKAPVYRTDRVMFQDKEYSIEEIEAGRIPNPHLGPVEERLALHVLQQQGLVPEHVESRPLYSPLQPDIEQGKLQMWVDLFPKALGRPGPPFNITPRRARRFFLRCIIWNTRDVILDDLSLTGEKMSDIYVKGWMIGFEEHKQKTDVHYRSLGGEGNFNWRFIFPFDYLPAEQVCTIAKKDAFWRLDKTESKIPARVVFQIWDNDKFSFDDFLGSLQLDLNRMPKPAKTAKKCSLDQLDDAFHPEWFVSLFEQKTVKGWWPCVAEEGEKKILAGKLEMTLEIVAESEHEERPAGQGRDEPNMNPKLEDPRRPDTSFLWFTSPYKTMKFILWRRFRWAIILFIILFILLLFLAIFIYAFPNYAAMKLVKPFS
binding [8]: no binding
